Here are results for 55 molecules from PubChem BioAssay AID463173 (ICCB-Longwood Screening Facility, Harvard Medical School, 2010).

Each structure is given as a SMILES string. Screen size: about 52,000 compounds; about 1,700 (3.3%) were called active. Rule as the data show it: active = survival mostly below about 52% (no sharp cut-off); inactive = mostly above about 56%. The list shows a part of the results.

This assay deals with Wild type. The assay is described as follows: growth inhibition of S. aureus wild type versus tarO mutant, primary screen, teichoic acid synthesis inhibitors, RN4220, OD600 (AID 463173). The conditions noted are these: S. aureus RN4220 wild type/DeltatarO growth, OD600, 18 h, stronger effect = lower value, screened at 18.75 µg/mL (by protocol).
Turning to `O=C(NCc1ccc2c(c1)OCO2)c1ccc2c(c1)N(Cc1ccc(F)cc1)C(=O)c1ccccc1S2=O` (stereo not given), the survival was inactive: 90%.
The figure for `CCOCCc1nn2c(=O)cc(COC(=O)c3cccs3)nc2s1` is inactive: 159%; for `Cc1ccc2nc(N(Cc3cccnc3)C(=O)c3ccc4c(c3)OCCO4)sc2c1` it is inactive: 67%.
Turning to `CCN(c1ccc(Cl)cc1)S(=O)(=O)c1nnc(NC(=O)C2CCCCC2)s1`, the survival was inactive: 89%.
As for `Cc1cc(C)cc(-n2c(SCC(=O)NCC3CCCO3)nc3c([nH]c4ccccc43)c2=O)c1` (stereo not given), the figure is inactive: 70%; as for `CCOc1ccc(-c2cc(NC(=O)c3ccc(C)cc3)c(C(=O)OC)s2)cc1`, inactive: 72%.
The figure for `COc1ccc2c(c1)-c1nc(NC(=O)c3ccc(C)cc3)sc1CC2` is active: 14%.
Consider `NC(=O)c1nsc(C(=O)N(CCc2ccccc2)C(C(=O)NC2CCCC2)c2ccco2)c1N` (stereo not given), for which the survival is inactive: 105%.
As for `CCCC(=O)C1=C(c2ccc(C)c(C)c2)N(C(=O)CCC)n2c(CC)nnc2S1`, the survival is inactive: 72%.
In the case of `COc1ccc(-c2noc(-c3ccc(NCCc4ccccc4)c([N+](=O)[O-])c3)n2)cc1OC`, the survival was inactive: 86%.
As for `CC1CCN(C(=O)c2cc(-c3cccc(Cl)c3)on2)CC1`, the survival was active: -15%.
The figure for `CCn1ccc2cc(S(=O)(=O)N3CCCN(C(=O)Nc4cc(Cl)ccc4C)CC3)ccc21` is inactive: 71%; for `CC(C)c1ccc(NS(=O)(=O)c2ccc3[nH]cc(C(=O)N4CCCC4)c(=O)c3c2)cc1` it is inactive: 78%; for `O=C(Cn1ncc2c3ccccc3n(Cc3ccccc3)c2c1=O)Nc1ccccc1C(F)(F)F` it is inactive: 84%.
As for `COc1ccc(OC)c(CNC(=O)CCCn2nc(C)c3c(C)n(-c4ccc(C)cc4)nc3c2=O)c1`, the figure is inactive: 54%.
As for `COc1cccc(CNC(=O)Cc2c(C)c3c(cc(C)c4c(C)coc43)oc2=O)c1`, the figure is inactive: 83%.
Take `CCOc1ccc(NC(=O)Nc2ccc3snnc3c2)cc1`: the survival was inactive: 116%.
The figure for `CCCC(=O)Nc1ccccc1NC(=O)CCC` is inactive: 86%; for `Nc1ccccc1OC(=O)C[n+]1ccccc1` it is inactive: 93%.
As for `CCc1ccc(CNC(=O)c2ccc3nc(C(C)C)oc3c2)cc1`, the figure is inactive: 85%.
With `Cn1ccc2c(OCC(=O)NCc3ccccc3Cl)cccc2c1=O`, the survival was inactive: 85%.
The figure for `CC(=O)N1CCC2(CC1)OC(=O)C(C)=C2C(=O)NCc1ccc(Cl)cc1` is inactive: 49%; for `Cc1nn(-c2nc(-c3ccc(F)cc3)cc(C(F)(F)F)n2)c(C)c1Cl` it is active: -2%; for `O=C(Nc1ccc2oc(-c3cccnc3)nc2c1)c1ccc(-c2ccccc2)o1` it is inactive: 72%.
The figure for `COc1ccc(OC(C)c2nc3ccccc3[nH]2)cc1` (stereo not given) is inactive: 79%; for `CCc1ccc(NC(=O)C(=O)NCC(c2cccnc2)N2CCN(C)CC2)cc1` (stereo not given) it is inactive: 111%.
Regarding `CCOc1ccc(NC(=O)Cn2cc(C(=O)c3ccc(C)c(C)c3)c(=O)c3cc(OC)c(OC)cc32)cc1`, the survival was inactive: 88%.
The figure for `COc1cc(NC(=O)C(CC(C)C)NS(=O)(=O)c2ccc3c(c2)oc(=O)n3C)c(C(=O)O)cc1OC` (stereo not given) is inactive: 124%; for `CCOC(=O)c1ccc(NC(=O)c2csc3c2CCCCC3)cc1` it is inactive: 33%; for `CCOc1ccc(NC(=O)C(=O)NCCc2csc3nc(-c4ccccc4F)nn23)cc1` it is active: -3%.
As for `Cc1ccc(CN2CCN(C3CCN(S(=O)(=O)c4ccc(C)cc4)CC3)C(=O)C2=O)cc1`, the figure is inactive: 77%.
The figure for `COC(=O)c1ccc(Cl)cc1NC(=O)N(C)CCc1c(C)nn(C)c1C` is inactive: 111%.
In the case of `O=c1cc(-c2ccc(F)cc2)nc(SCc2nc(-c3ccccc3Cl)no2)[nH]1`, the survival was inactive: 121%.
The figure for `CCC1CCCCN1C(=O)CSc1nc2c([nH]c3ccccc32)c(=O)n1-c1cccc(OC)c1` (stereo not given) is inactive: 53%; for `Cc1ccc(-n2ccnc(NCCc3ccc(S(N)(=O)=O)cc3)c2=O)cc1C` it is inactive: 55%.
As for `Cc1oc(-c2cccc(Cl)c2)nc1CSc1nc2ncccc2[nH]1`, the figure is inactive: 78%; as for `COc1cc(C(=O)Nc2ccc(NC(=O)c3ccc(Br)cc3)cc2)cc(OC)c1OC`, inactive: 82%; as for `COc1ccc(CCn2c3c(c(=O)[nH]c2=O)C(NC(=O)c2ccccc2OC)(C(F)(F)F)C(=O)N3)cc1OC` (stereo not given), inactive: 84%.
As for `O=C(O)c1ccc2nc(-c3cc4cc(F)ccc4oc3=O)[nH]c2c1`, the figure is inactive: 121%; as for `Cc1cccc(N2CCN(C(=O)c3cc4c(=O)n(C)c5ccccc5c4s3)CC2)c1C`, inactive: 59%; as for `O=C(COc1ccccc1Cl)Nc1ccc(Cl)c(-c2nc3ccccc3o2)c1`, inactive: 80%.
As for `COCCN(Cc1cc2cc3c(cc2nc1Cl)OCO3)C(=O)Nc1ccccc1OC`, the survival is inactive: 100%.
As for `CCOc1ccc(NC(=O)c2cnn(-c3ccc(C)c(C)c3)c2C2CCN(C(=O)OC(C)(C)C)CC2)cc1`, the figure is inactive: 89%; as for `COc1ccccc1N1CCN(C(=O)c2cn(C)c3ccc(S(=O)(=O)N(C)C4CCCCC4)cc3c2=O)CC1`, inactive: 87%.
As for `CCc1ccc(OCC(=O)N(Cc2ccco2)Cc2ccccc2Cl)cc1`, the figure is inactive: 83%.
The figure for `CCOc1ccc(Nc2nc3c(S(=O)(=O)c4cccc(Cl)c4)nnn3c3ccsc23)cc1` is inactive: 98%; for `CC1=C(C(=O)Nc2ccccc2)C(c2ccc(C(=O)O)cc2)n2ncnc2N1` (stereo not given) it is inactive: 47%; for `Cc1ccc(NC(=O)CCCn2c(=O)c3cccn3c3ccccc32)c(C)c1` it is inactive: 68%.
Turning to `CCOC(=O)c1cnc2c(ccc3ccccc32)c1Nc1cccc(C(F)(F)F)c1`, the survival is inactive: 37%.
The figure for `CCc1noc(-c2ccc(NCc3ccccc3)c([N+](=O)[O-])c2)n1` is inactive: 78%; for `Cc1ccc(C(=O)NCC(c2ccc3c(c2)OCO3)N2CCN(C)CC2)cc1C` (stereo not given) it is inactive: 78%; for `COc1ccc(F)cc1S(=O)(=O)NCC(c1ccco1)S(=O)(=O)c1ccc(F)cc1` (stereo not given) it is inactive: 45%.
As for `CCCn1c(=C(C#N)C#N)s/c(=C2\C=Cc3ccccc3N2CC)c1=O`, the figure is inactive: 105%; as for `CCOc1cc(C(=O)NCCc2csc3nc(-c4ccccc4F)nn23)cc(OCC)c1OCC`, inactive: 87%; as for `COc1ccc(Cn2c(C(=O)O)c(CNCCc3ccco3)c3ccc(C)cc32)cc1`, inactive: 87%.
